System: patient-derived HEV of gts 1–4
Assay: Infection of hepatocyte-like cells with primary HEV isolates, HEV RNA copies
Conditions: 10 nM silvestrol for 24 h, 24 h post-infection

## COC(=O)[C@H]1[C@@H](O)[C@@]2(O)c3c(OC)cc(O[C@@H]4O[C@@H]([C@H](O)CO)CO[C@H]4OC)cc3O[C@@]2(c2ccc(OC)cc2)[C@@H]1c1ccccc1 [Silvestrol, silvestrol]
  reduction of HEV RNA copy numbers in HLCs: confirmed in all major human pathogenic genotypes

Reference: PMC7113770 (Antiviral Research, 2018)
